# Inconclusive means that the source gave no clear call. Such entries were picked first, then a sample of the others. For part of these data: No potency is given beside an inconclusive call; the fits are too rough. Calls of active or inactive are those of the source. Unless noted, calls come from the whole dose curve; as a rule, active = well fitted curve in the direction sought with a large enough effect; inconclusive = small, poorly fitted or top-dose-only effect, or another doubt; inactive = no such curve, though single readings can be large; an effect the other way counts as inactive or inconclusive.
# Experiments:
# [1] = Primary qHTS for small molecule stabilizers of the endoplasmic reticulum resident proteome: Secreted ER Calcium Modulated Protein (SERCaMP) assay (AID 1508630); conditions: SH-SY5Y GLuc-SERCaMP (Gaussia luciferase released on ER calcium loss) secretion, thapsigargin, luminescence; activity change, negative = inhibition: at 38.4 µM (top of the series); note: potency is the fitted concentration of half-maximal effect; for activity change, negative = inhibition: % is set by controls: 0 for no effect and ±100 for the full control effect
# Method in brief: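 GLuc-SERCaMP-expressing SH-SY5Y cells, pretreated 16 h with compound, are challenged with thapsigargin to empty ER calcium stores; after 4 h, coelenterazine is added directly to the medium and luminescence is imaged.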
# [2] = biological target: 3',5'-cyclic-AMP phosphodiesterase 4B (Homo sapiens) (UniProt Q07343); experiment: qHTS Assay for Inhibitors of PDE-IV (AID 607; active = well fitted activation curve with a large enough effect in the main read-out, with a control signal flat, not every such curve was filed as active; inconclusive = small, poorly fitted or top-dose-only effect, or effect the other way, or a change in a side signal; note: potency is the fitted concentration of half-maximal effect); conditions: HEK293 ACTOne CNG channel cells, membrane potential fluorescence; activation (PDE inhibition): at 22.9 µM (top of the series)
# Chain of UniProt Q07343 (Q07343 whole entry, looked up): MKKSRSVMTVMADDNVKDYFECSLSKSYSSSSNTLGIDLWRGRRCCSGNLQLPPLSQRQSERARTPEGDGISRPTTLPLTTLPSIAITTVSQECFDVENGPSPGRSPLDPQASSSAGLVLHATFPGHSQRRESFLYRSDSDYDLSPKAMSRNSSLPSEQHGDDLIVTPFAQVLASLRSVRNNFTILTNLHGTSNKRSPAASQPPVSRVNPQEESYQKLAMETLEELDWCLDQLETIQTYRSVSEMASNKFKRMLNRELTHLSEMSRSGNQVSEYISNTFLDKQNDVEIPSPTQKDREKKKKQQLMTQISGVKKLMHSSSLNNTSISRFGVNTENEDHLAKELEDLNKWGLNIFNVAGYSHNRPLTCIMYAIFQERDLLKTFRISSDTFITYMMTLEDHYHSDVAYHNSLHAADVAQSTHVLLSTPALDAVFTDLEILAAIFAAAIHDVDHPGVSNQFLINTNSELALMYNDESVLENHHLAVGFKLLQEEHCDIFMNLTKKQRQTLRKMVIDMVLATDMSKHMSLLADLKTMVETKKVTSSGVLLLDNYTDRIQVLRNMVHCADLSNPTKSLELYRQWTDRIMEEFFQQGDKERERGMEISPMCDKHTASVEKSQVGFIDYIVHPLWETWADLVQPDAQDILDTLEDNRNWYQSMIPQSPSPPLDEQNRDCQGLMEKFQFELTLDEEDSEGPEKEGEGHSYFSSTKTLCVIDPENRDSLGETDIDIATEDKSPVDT
# Method in brief: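 Live HEK293 cells with a modified cyclic nucleotide-gated (CNG) channel report intracellular cAMP via membrane-potential dye fluorescence (ex 535/em 590 nm). Endogenous PDE-IV was targeted. Compounds were tested at up to 22.9 uM final; RO 20-1724 100 uM served as control.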
# [3] = Confirmatory qHTS for small molecule stabilizers of the endoplasmic reticulum resident proteome: Secreted ER Calcium Modulated Protein (SERCaMP) assay (AID 1508628); note: nearly all actives have a fitted effect of over 40% in size; note: potency is the fitted concentration of half-maximal effect
# Method in brief: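 SH-SY5Y cells stably expressing GLuc-SERCaMP, treated 16 h with compound (primary 1.53, 7.67, 38.3 uM; confirmation 11 concentrations, up to 76.6 uM), then 100 nM thapsigargin for 4 h. Secreted Gaussia luciferase in medium read by coelenterazine luminescence.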
# [4] = Cell Viability qHTS for small molecule stabilizers of the endoplasmic reticulum resident proteome (AID 1508629); conditions: cell viability counter-screen, 100 nM thapsigargin for final 4 h;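 note: compound exposure about 46 h in total before the viability read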; note: potency is the fitted concentration of half-maximal effect;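 for max response: human SH-SY5Y neuroblastoma cells carrying the GLuc-SERCaMP reporter; % is set by controls: 0 for no effect and ±100 for the full control effect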
# [5] = AP1 Signaling Pathway (AID 357; active = well fitted curve in either direction with a large enough effect, not every such curve was filed as active; inconclusive = small, poorly fitted or top-dose-only effect, or another doubt;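 note: ME-180 reporter cells stimulated with EGF at its EC50 level; top concentration of the series differs between compounds; % is set by controls: 0 for no effect and ±100 for the full control effect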); conditions: ME-180 (cervical carcinoma) AP-1-bla reporter, EGF-induced, beta-lactamase ratio, 5 h; at 17.2 µM (top of the series) unless noted
# Method in brief: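 A ratiometric CCF4 readout (405 nm excitation; 460 and 530 nm emission) quantified AP-1-driven beta-lactamase in ME-180 cells after 5 h with compound and EC50 EGF; AC50 values were derived for activators and inhibitors.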
# [6] = NFAT Signaling Pathway (AID 444; active = well fitted curve in either direction with a large enough effect, not every such curve was filed as active; inconclusive = small, poorly fitted or top-dose-only effect, or another doubt;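 note: carbachol stimulus at about its EC50 of 1 µM final; % is set by controls: 0 for no effect and ±100 for the full control effect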); conditions: Jurkat NFAT-bla M1, carbachol, beta-lactamase ratio, 5 h; at 7.69 µM (top of the series) unless noted
# Method in brief: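 Read-out: CCF4 FRET ratio (460 nm/530 nm) after 1 h RT dye loading, used for %activity and AC50 from titration series. Cells: Jurkat NFAT-β-lactamase/M1 line, treated with compound plus 1 uM carbachol for 5 h, 37 °C.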
# [7] = biological target: Cytochrome P450 2C9 (Homo sapiens) (UniProt P11712); experiment: qHTS Assay for Inhibitors and Substrates of Cytochrome P450 2C9 (AID 883); note: potency is the fitted concentration of half-maximal effect; nearly all actives have a fitted effect of over 60% in size
# Chain of UniProt P11712 (P11712 whole entry, looked up): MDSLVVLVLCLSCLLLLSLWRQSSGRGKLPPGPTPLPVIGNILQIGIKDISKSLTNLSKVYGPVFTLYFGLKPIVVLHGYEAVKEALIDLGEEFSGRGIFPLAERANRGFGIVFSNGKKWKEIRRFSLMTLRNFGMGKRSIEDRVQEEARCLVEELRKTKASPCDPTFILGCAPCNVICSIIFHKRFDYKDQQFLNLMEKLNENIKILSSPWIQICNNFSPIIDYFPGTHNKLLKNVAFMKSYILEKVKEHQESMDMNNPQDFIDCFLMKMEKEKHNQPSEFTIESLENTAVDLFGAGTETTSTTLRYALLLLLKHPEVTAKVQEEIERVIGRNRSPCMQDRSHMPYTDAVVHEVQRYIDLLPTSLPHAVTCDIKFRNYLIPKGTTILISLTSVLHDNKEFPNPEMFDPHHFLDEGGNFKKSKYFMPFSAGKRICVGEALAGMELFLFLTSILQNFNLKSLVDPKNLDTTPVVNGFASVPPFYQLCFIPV
# Method in brief: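 Turnover of Luciferin-H (100uM, KM) by 10nM human CYP2C9 was measured over 60 min at 37C with NADPH regeneration; inhibitors and some substrates reduce luminescence. Data normalized to sulphaphenazole 57uM.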
# [8] = biological target: Cytochrome P450 1A2 (Homo sapiens) (UniProt P05177); experiment: p450-cyp1a2 (AID 410; calls by dose curve; note: potency is the fitted concentration of half-maximal effect)
# Chain of UniProt P05177 (P05177 whole entry, looked up): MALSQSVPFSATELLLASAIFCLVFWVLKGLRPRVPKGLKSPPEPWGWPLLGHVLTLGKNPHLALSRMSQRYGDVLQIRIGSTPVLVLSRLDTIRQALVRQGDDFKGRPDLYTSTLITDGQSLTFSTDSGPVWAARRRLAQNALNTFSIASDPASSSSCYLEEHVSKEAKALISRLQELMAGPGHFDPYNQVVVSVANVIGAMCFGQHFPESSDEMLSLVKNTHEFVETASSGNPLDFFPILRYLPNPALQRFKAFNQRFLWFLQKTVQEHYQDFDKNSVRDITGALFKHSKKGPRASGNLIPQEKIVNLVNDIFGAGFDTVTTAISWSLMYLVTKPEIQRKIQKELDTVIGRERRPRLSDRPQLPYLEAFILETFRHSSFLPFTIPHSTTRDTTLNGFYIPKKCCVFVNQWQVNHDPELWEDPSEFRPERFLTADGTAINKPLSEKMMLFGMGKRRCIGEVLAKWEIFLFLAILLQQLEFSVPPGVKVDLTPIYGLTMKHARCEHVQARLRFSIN
# Method in brief: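 Luminescent readout of luciferin formed from Luciferin-ME by human CYP1A2; data normalized against complete inhibition by 57 uM furafylline. Enzyme 20nM, substrate 100uM at Km, 100mM KPO4 buffer, 60 min reaction at room temperature.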
# [9] = biological target: Ubiquitin carboxyl-terminal hydrolase 1 (Homo sapiens) (UniProt O94782); experiment: Inhibitors of USP1/UAF1: Pilot qHTS (AID 504865);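 note: rhodamine fluorescence freed from ubiquitin-rhodamine substrate followed over time; top concentration of the series differs between compounds; % is set by controls: 0 for no effect and ±100 for the full control effect; nearly all actives have a fitted effect of over 35% in size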
# Chain of UniProt O94782 (O94782 whole entry, looked up): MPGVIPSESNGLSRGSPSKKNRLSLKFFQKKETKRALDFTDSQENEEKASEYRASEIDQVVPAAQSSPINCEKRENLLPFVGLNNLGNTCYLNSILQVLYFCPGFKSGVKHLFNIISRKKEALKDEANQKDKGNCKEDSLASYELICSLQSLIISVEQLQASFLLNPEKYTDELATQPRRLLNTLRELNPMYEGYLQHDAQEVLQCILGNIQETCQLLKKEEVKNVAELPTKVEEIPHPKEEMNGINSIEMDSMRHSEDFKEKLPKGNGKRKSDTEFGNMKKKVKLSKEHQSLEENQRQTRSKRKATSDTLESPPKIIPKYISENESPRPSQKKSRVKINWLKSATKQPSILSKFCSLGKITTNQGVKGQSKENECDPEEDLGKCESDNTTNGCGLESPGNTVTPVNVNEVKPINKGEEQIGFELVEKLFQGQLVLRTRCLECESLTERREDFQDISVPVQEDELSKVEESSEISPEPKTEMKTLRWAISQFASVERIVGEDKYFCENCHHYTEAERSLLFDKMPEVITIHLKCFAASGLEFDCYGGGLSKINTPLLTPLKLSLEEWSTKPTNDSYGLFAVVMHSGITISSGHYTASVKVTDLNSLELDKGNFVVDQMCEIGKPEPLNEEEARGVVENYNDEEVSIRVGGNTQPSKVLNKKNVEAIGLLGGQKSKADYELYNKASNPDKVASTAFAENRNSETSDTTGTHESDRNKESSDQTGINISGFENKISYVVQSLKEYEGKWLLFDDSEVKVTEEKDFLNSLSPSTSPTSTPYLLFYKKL
# Method in brief: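 USP1/UAF1 complex (1nM) preincubated with compound 15 min at room temperature, then Ub-Rho substrate (150nM final) added. Fluorescence read kinetically at 480/540 nm, 6 reads every 60 seconds. Buffer: 50mM HEPES pH 7.8, 0.5mM EDTA, 0.1 mg/ml BSA, 1mM TCEP, 0.01% Tween-20.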
# Tags give direction and shape of the fitted curve.
smiles,measurement,setting,value
Cc1[nH]c2ccc(Cl)cc2c1C1=CCNCC1,Potency,[1],active: 35.5 µM
CN1CC[C@@]2(c3cccc(O)c3)Cc3nc4ccccc4cc3C[C@H]2C1,Potency,[2],"inconclusive [activator, partial curve, poor fit]"
same,Potency,[3],"inconclusive [inhibitor, full curve]"
same,max response,[4],inactive: -3.73%
same,Potency,[1],"inconclusive [inhibitor, partial curve, poor fit]"
O=C1CSC(c2ccccc2Cl)c2cc(Cl)ccc2N1 (stereo not given),Potency,[1],inactive
c1ccc(N2CCCC3(CCNCC3)C2)cc1,"activity change, negative = inhibition",[5],inactive: -1.2% [at 7.69 µM]
same,Potency,[3],"inconclusive [inhibitor, partial curve]"
same,max response,[4],inactive: -4.75%
same,Potency,[1],"inconclusive [inhibitor, partial curve, poor fit]"
O=C1Nc2ccccc2C2(CCN(CCc3ccc(C(F)(F)F)cc3)CC2)O1,Potency,[1],"inconclusive [inhibitor, single point]"
CS(=O)(=O)N1CCC2(CC1)CN(Cc1ccncc1)C2,Potency,[1],inactive
CN1C2CCC1CC(OC(=O)C1CCC(C(=O)OC3CC4CCC(C3)N4C)(c3ccccc3)c3ccccc31)C2 (stereo not given),max response,[4],inactive: -2.96%
same,Potency,[1],"inconclusive [inhibitor, full curve, poor fit]"
NC(N)=NCCCCCCCCCCN=C(N)N,Potency,[3],inactive
same,Potency,[4],"inconclusive [rising, partial curve, poor fit]"
same,Potency,[1],"inconclusive [inhibitor, partial curve, poor fit] and inactive"
COc1ccc(NC(=O)N2CCCC3(CCN(C(=O)Oc4ccccc4)CC3)C2)cc1,"activity change, negative = inhibition",[6],inconclusive: -43.7% [inhibitor]
same,Potency,[7],"inconclusive [inhibitor, full curve]"
same,Potency,[3],inactive
same,Potency,[4],"inconclusive [rising, full curve]"
CN1C(=O)COc2c(C(=O)N[C@@H]3CN4CCC3CC4)cc(Cl)cc21,Potency,[8],inconclusive [decreasing]
same,Potency,[3],"inconclusive [inhibitor, single point]"
same,Potency,[4],"inconclusive [rising, full curve]"
same,Potency,[1],"inconclusive [inhibitor, full curve]"
O[C@@H]1[C@H](O)[C@H]2[C@@H](O)CCN2C[C@@H]1O,Potency,[8],inconclusive [decreasing]
same,Potency,[2],"inconclusive [inhibitor, single point]"
same,Potency,[3],inactive
same,Potency,[4],"inconclusive [rising, full curve]"
c1ccc2sc(C3(NCC4CC4)CCCCC3)cc2c1,Potency,[1],"inconclusive [inhibitor, single point]"
Cc1ccc2c(c1)Cc1c(C(=O)NN3CCCCC3)nn(-c3ccc(Cl)cc3Cl)c1-2,Potency,[1],"inconclusive [inhibitor, single point]"
c1cnc(N2CCC3(CCNCC3)CC2)nc1,"activity change, negative = inhibition",[6],inconclusive: -30.9% [inhibitor]
same,Potency,[3],inactive
same,max response,[4],inactive: 1.49%
same,Potency,[1],"inconclusive [inhibitor, partial curve, poor fit]"
C[C@@H](C(=O)OC1C[C@H]2CC[C@@H](C1)N2C)c1ccc(Br)cc1 (stereo not given in full),Potency,[2],"inconclusive [activator, partial curve]"
same,Potency,[9],inactive
same,max response,[4],inactive: -11%
CC(C)=CCCN1CCC(NC(=O)C(O)(c2ccccc2)C2CCCC2)CC1 (stereo not given),Potency,[3],"inconclusive [inhibitor, full curve]"
same,max response,[4],inactive: 3.9%
same,Potency,[1],"inconclusive [inhibitor, partial curve, poor fit]"
c1cc(CN2CCCC3(CCNCC3)C2)ccn1,Potency,[3],"inconclusive [inhibitor, full curve, poor fit]"
same,max response,[4],inactive: 27.2%
same,Potency,[1],"inconclusive [inhibitor, full curve, poor fit]"
CC(N)(COP(=O)(O)Oc1ccccc1)C(=O)O (stereo not given),Potency,[1],inactive

# From PubChem BioAssay (NCATS)
